Assay results published in PubChem BioAssay AID652104 (National Center for Advancing Translational Sciences (NCATS), 2013).
The campaign covered roughly 410,000 compounds. About 7,200 (1.8%) were called active. Inconclusive results, whose numbers are uncertain, are shown with a selection of clear calls. Calls come from the whole dose curve; as a rule, active = well fitted activation curve with a large enough effect; inconclusive = small, poorly fitted or top-dose-only effect, or another doubt; inactive = no such curve, though single readings can be large or run the other way. No potency is given beside an inconclusive call; the fits are too rough.
Potency is the fitted concentration of half-maximal effect; tags give direction and shape of the fitted curve.

Test: qHTS of TDP-43 Inhibitors; note: nearly all actives have a fitted effect of over 50% in size; for growth rescue (activation): % of control where 0% means no effect
Conditions: TDP-43 expressing yeast growth rescue, BacTiter-Glo, 24 h; growth rescue (activation): at 46.1 µM (top of the series) unless noted
Procedure, shortened: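 Cell-based yeast growth screen: TDP-43 expression induced in galactose, inoculum OD600=0.02 after raffinose pregrowth to mid-log. Read-out BacTiter-Glo luminescence at 24 hr, 30 deg C; inhibition of toxicity seen as signal increase.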
With CC1(C)N=C(SCC(=O)Nc2ccc(Cl)cc2)C(c2ccc(Cl)cc2)=N1 the Potency was active: 35.5 µM.
In the case of CSc1ccccc1OCc1cc(C(=O)N(C)Cc2ccc3nsnc3c2)no1, the Potency is reported as inconclusive [activator, partial curve].
With CCOc1ccccc1C(=O)Nc1ccccc1O the Potency was active: 14.1 µM.
For CCCCC(O)(c1ccccc1)C(CN1CCOCC1)c1ccccc1 (centres undefined), the “growth rescue (activation)” value was inactive: 1.03%.
With c1ccc(Oc2cc(-c3ccccc3)nc(-c3ccccc3)n2)cc1 the “growth rescue (activation)” value was inactive: 11.6%.
With CN(C)c1ccc(-c2nc(-c3cccs3)c(-c3cccs3)[nH]2)cc1 the Potency was inconclusive [activator, partial curve].
For O=C1CC(NS(=O)(=O)c2ccc(F)cc2)CN1c1ccc2c(c1)OCCO2 (centres undefined), the Potency was inconclusive [activator, partial curve].
In the case of O=C(Nc1ccc2c(c1)OCO2)c1cc(C2CCCN(C(=O)C3CCCCC3)C2)on1 (centres undefined), the Potency is reported as active: 35.5 µM.
With O=C(O)Cc1sc(-c2ccc(Cl)cc2)nc1-c1ccccc1 the Potency was inconclusive [activator, partial curve].
With OCOCCCn1c(C2CCCN2c2nc(-c3ccc(F)cc3)cs2)nc2cc(Cl)c(N3CCCCC3)cc21 (centres undefined) the Potency was inconclusive [activator, single point].
For Cc1ccc(-c2nc3cccnc3o2)cc1NC(=O)COc1ccc(Cl)cc1C, the “growth rescue (activation)” value was inactive: 12.5%.
For CC1CCCCN1C(=S)Nc1ccc(S(=O)(=O)N2CCCCC2)cc1 (centres undefined), the “growth rescue (activation)” value was inactive: 5.31%.
For CCNC(=O)N(C)[C@H]1C[C@H]2c3[nH]c4ccccc4c3CCN2C[C@H]1[C@H](C)O, the Potency was inconclusive [activator, full curve].
For Oc1ccccc1N=Nc1nc(-c2ccccc2)c(-c2ccccc2)[nH]1, the growth rescue (activation) was inconclusive: -75.5% [activator].
In the case of CC(C)(C)CNC(=O)C1(C)CCN1C(=O)Cc1ccc(-c2ccccc2)cc1 (centres undefined), the Potency is reported as inconclusive [activator, partial curve].
With CCOC(=O)CC(=O)CSc1nc2cc(C)ccc2cc1C the Potency was inconclusive [activator, single point].
In the case of COc1cccc(NC=C2C(=O)OC3(CCCCC3)OC2=O)c1, the Potency is reported as active: 25.1 µM.
In the case of CCC(C)[C@@H](NC(=O)OC(C)(C)C)c1nnc(S(=O)(=O)Cc2cccc(C)c2)o1 (some centres undefined), the Potency is reported as active: 7.94 µM.
With Cc1nc(-c2coc3cc(OCC(=O)O)ccc3c2=O)cs1 the “growth rescue (activation)” value was inactive: -22.6%.
For CCCc1nn2c(C)c(-c3ccccc3)nc2s1, the “growth rescue (activation)” value was inactive: -5.19%.
In the case of Cc1ccc(-n2ncc(C(=O)N3CCC(c4ccccc4)C3)c2C2CCN(C(=O)OC(C)(C)C)CC2)cc1 (centres undefined), the Potency is reported as inconclusive [activator, partial curve].
In the case of Cn1ncc(S(=O)(=O)Cc2ccccc2)c(Cl)c1=O, the growth rescue (activation) is reported as inconclusive: -93.2% [activator].
For O=C1CC(N2CCN(c3ccccc3Cl)CC2)C(=O)N1c1ccc(F)cc1 (centres undefined), the Potency was inconclusive [activator, single point].
In the case of COc1ccccc1C(=O)Nc1sc2c(c1C(N)=O)CCCC2, the Potency is reported as inconclusive [activator, partial curve].
With Cc1ccc(C)c(CN2C(=O)c3ccccc3S(=O)c3ccc(C(=O)N(C)Cc4ccccc4)cc32)c1 (centres undefined) the Potency was inconclusive [activator, single point].
With COCc1ccc(C(=O)N2CCCC(C(=O)c3cc(F)ccc3F)C2)s1 (centres undefined) the Potency was active: 11.2 µM.
With CCN(C(=O)COc1ccc2ccc(=O)oc2c1)C1CCCCC1 the Potency was inconclusive [activator, partial curve].
With CCOC(=O)c1c2c(n(Cc3ccccc3)c1C)C(=O)C(=O)c1ccccc1-2 the Potency was inconclusive [activator, single point].
With O=[N+]([O-])c1cccc(C(=S)N2CCN(c3ccccc3F)CC2)c1 the Potency was inconclusive [activator, single point].
With CCCOc1ccc(C2C(=O)N(C3CCCCCC3)CC(=O)N2CCCOCC)cc1OC (centres undefined) the “growth rescue (activation)” value was inactive: -12.2%.
For N#CC1=C2SCN(Cc3ccco3)CN2C(=O)CC1c1ccccc1F (centres undefined), the “growth rescue (activation)” value was inactive: -17.2%.
In the case of COC(=O)c1cc2c(s1)-c1ccccc1OC2, the Potency is reported as inconclusive [activator, full curve].
With Cc1cccc(N2CCN(C(=O)CSc3ccc4c(c3)OCCO4)CC2)c1C the Potency was inconclusive [activator, single point].
In the case of CCOc1ccc(C(=O)NCCc2ccc3c(c2)OCCO3)cc1, the Potency is reported as inconclusive [activator, partial curve].
With O=C1c2cccc(OCC(=O)N3N=C(c4cccs4)CC3c3ccc(F)cc3)c2CCN1Cc1ccccc1 (centres undefined) the Potency was inconclusive [activator, partial curve, poor fit].
For CCC(=O)N1CCc2cc(S(=O)(=O)N(C)c3cccc(C)c3)ccc21, the “growth rescue (activation)” value was inactive: 5.85%.
In the case of O=C(/C=C/c1ccccc1)N1CCN(Cc2cc(=O)n3nc(-c4ccccc4)sc3n2)CC1, the “growth rescue (activation)” value is reported as inactive: -7.99%.
With Cc1ccc(C2=CC(C)(c3ccc(C)cc3)Nc3nc(C(F)(F)F)nn32)cc1 (centres undefined) the Potency was inconclusive [activator, partial curve].
In the case of C[C@H](NS(=O)(=O)OCC(Cl)(Cl)Cl)C1CC1c1ccccc1 (some centres undefined), the Potency is reported as active: 22.4 µM.
For CCN(CC(=O)NCc1ccc(Cl)cc1)C(=O)c1ccc2cc(OC)ccc2c1, the Potency was inconclusive [activator, single point].
For CC(C)c1ccccc1NC(=O)CSc1nnc(COc2ccccc2Cl)o1, the Potency was active: 20 µM.
In the case of CCNC(=O)n1nccc1C(C)Oc1ccc(Cl)cc1 (centres undefined), the Potency is reported as active: 11.2 µM.
With CCOc1ccccc1NC(=O)N1CCN(S(=O)(=O)c2ccc3c(ccn3C)c2)CC1 the “growth rescue (activation)” value was inactive: 14.9%.
In the case of Nc1c(-c2nc(-c3ccccc3)no2)nnn1CC(=O)Nc1ccccc1, the Potency is reported as inconclusive [activator, full curve, poor fit].
In the case of ClCc1nnc(-c2cc3c(s2)CCCC3)o1, the Potency is reported as inconclusive [activator, partial curve].
For CC(=O)c1ccc(NC(=S)Nc2ccc(N3CCOCC3)cc2)cc1, the Potency was inconclusive [activator, partial curve, poor fit].
With COC(=O)c1cc2ccccc2n1S(=O)(=O)c1ccccc1 the Potency was inconclusive [activator, single point].
With N/C(=N\OC(=O)CCCc1ccccc1)c1cccnc1 the “growth rescue (activation)” value was inactive: 0%.
For O=C(CSc1ccc2nnc(-c3cccs3)n2n1)N1CCCC1, the “growth rescue (activation)” value was inactive: -21.7%.
In the case of COc1ccc(OC)c(NC(=O)CSc2nnc(CNc3ccc(C)cc3C)o2)c1, the Potency is reported as inconclusive [activator, single point].
For O=C(c1ccc2c(c1)OCO2)C1CCCN(C(=O)Nc2ccc(F)cc2F)C1 (centres undefined), the Potency was inconclusive [activator, single point].
For Cc1ccc(C)c(S(=O)(=O)N2CCN(c3ncccn3)CC2)c1, the Potency was inconclusive [activator, partial curve].
In the case of O=c1oc2c(-c3cccc(F)c3)cc(O)cc2s1, the Potency is reported as inconclusive [activator, partial curve].
With Cc1ccc(-c2nc3c(C)cccn3c2Nc2ccccc2C)s1 the Potency was inconclusive [activator, full curve, poor fit].
In the case of COc1ccc(/C=N/n2c(-c3n[nH]c4c3CCC4)n[nH]c2=S)cc1, the Potency is reported as inconclusive [activator, partial curve].
For O=c1oc2ccccc2cc1-c1cn2cccnc2n1, the Potency was inconclusive [activator, partial curve].
For CCN(CCCNC(=O)c1ccc(Sc2ccc(F)cc2)c(NC(C)=O)c1)c1ccccc1, the Potency was inconclusive [activator, full curve, poor fit].
In the case of COc1ccc(OC)c(S(=O)(=O)N2CCCC(C)C2)c1 (centres undefined), the Potency is reported as inconclusive [activator, partial curve].
With COc1ccc(-c2c(C#N)c(N)nc3c2CCc2ccccc2-3)cc1OC the Potency was inconclusive [activator, single point].
For COc1ccc(CN(C)C(=O)CNC(=O)c2ccc3ccccc3c2)c(OC)c1, the “growth rescue (activation)” value was inactive: 22.3%.
With O=[N+]([O-])c1ccccc1/C=N/N1CCN(c2ccncc2S(=O)(=O)N2CCCCC2)CC1 the Potency was inconclusive [activator, single point].
With Cc1oc(=O)c(NC(=O)c2cccc(Cl)c2)cc1C(=O)c1ccccc1 the growth rescue (activation) was inconclusive: -93.5% [activator].
For CCS(=O)(=O)N1CCC(C(=O)Oc2ccccc2Br)CC1, the Potency was inconclusive [activator, single point].
With Cc1ccc(S(=O)(=O)N2CCC(C(=O)OCC(=O)N(C)c3ccccc3)CC2)cc1C the Potency was inconclusive [activator, full curve, poor fit].
With COc1ccc(C(C)=O)cc1Cn1c(C)c(C(=O)NCc2cccc(C)c2)sc1=O the Potency was inconclusive [activator, single point].
In the case of O=C1/C(=C\c2ccncc2)CCc2ccccc21, the Potency is reported as inconclusive [activator, partial curve].
For CC(C)(C)C(=O)O/N=C1/C(=O)N(c2ccccc2)c2ccccc21, the Potency was inconclusive [activator, single point].
In the case of COc1ccc(NC(=O)c2sc(Cl)nc2-c2ccccc2)cc1, the Potency is reported as inconclusive [activator, partial curve].
With COc1ccc(-n2nnnc2Sc2ccc(S(=O)(=O)N3CCOCC3)cn2)cc1 the Potency was inconclusive [activator, single point].
